Data reported in PubChem BioAssay AID1346428 (National Center for Advancing Translational Sciences (NCATS), 2018).
The campaign covered roughly 48,000 compounds. About 1,200 (2.5%) were called active. Inconclusive results (about 2%) are left out.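 The calls were made as follows: active = activation of at least 60% and not above a set upper limit (about 1 call in 100 departs from these limits); inconclusive = activation of 40% to 60%, or above that upper limit; inactive = activation under 40%.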 The list shows a part of the results.

Biological target: Probable G-protein coupled receptor 32 (Homo sapiens) (UniProt O75388)
Assay: qHTS for Agonists of Human Resolvin D1 Receptor DRV1; also: 0% is about no effect
Details: CHO-K1 GPR32 beta-arrestin PathHunter luminescence, 90 min; at 76.9 µM; stronger effect = higher value; zero percent set by DMSO-only wells
Procedure, shortened: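 Beta-arrestin recruitment read-out: luminescence from complemented beta-Gal in CHO-K1 GPR32 PathHunter cells, measured 1 h after detection reagent at ambient temperature following 90 min compound exposure at 37 °C; DMSO served as basal (EC0) control.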

Chain of UniProt O75388 (O75388 whole entry, looked up): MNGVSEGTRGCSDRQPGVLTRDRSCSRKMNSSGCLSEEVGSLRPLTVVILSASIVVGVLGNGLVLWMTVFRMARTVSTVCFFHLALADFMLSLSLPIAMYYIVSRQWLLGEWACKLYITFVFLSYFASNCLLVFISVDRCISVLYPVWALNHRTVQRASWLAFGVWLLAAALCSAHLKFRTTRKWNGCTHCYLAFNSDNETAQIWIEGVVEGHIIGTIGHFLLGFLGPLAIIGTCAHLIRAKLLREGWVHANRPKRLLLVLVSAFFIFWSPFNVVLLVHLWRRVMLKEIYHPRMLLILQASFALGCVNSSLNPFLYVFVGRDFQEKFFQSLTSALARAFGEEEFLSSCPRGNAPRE

| Structure (SMILES) | activation |
| --- | --- |
| O=S(=O)(c1ccc(Cl)cc1)c1nnn2c1nc(NC1CCCC1)c1sccc12 | inactive: -11.5% |
| CCC1Sc2ccccc2N(CC(=O)NCc2ccc(C)cc2)C1=O (centres undefined) | inactive: -9.07% |
| CN(CCOc1ccc(CC2SC(=O)NC2=O)cc1)c1ccccn1 (centres undefined) | inactive: 10.4% |
| O=C(CSc1nc2c([nH]c3ccccc32)c(=O)n1-c1ccccc1)Nc1ccc2c(c1)OCO2 | inactive: -52% |
| Nc1c(C(=O)Nc2ccccc2Br)sc2nc(-c3cccs3)ccc12 | inactive: -10.3% |
| COc1ccc(-c2nc(Cn3c(=O)cc(C)c4c(C)nn(-c5ccccc5)c43)c(C)o2)cc1OC | inactive: -7.66% |
| COc1ccc(C)cc1-n1c(-c2ccc(Cl)cc2)cc2c1CC(C)(C)CC2=O | inactive: -1.79% |
| Cc1noc2ncnc(N3CCN(c4cccc(C(F)(F)F)c4)CC3)c12 | inactive: 9.35% |
| Cc1cccn2c(=O)c3cc(C(=O)NCC(C)C)sc3nc12 | inactive: 3.18% |
| COc1ccc(N2CCN(C(CNS(=O)(=O)c3ccc(OC)c(C)c3)c3ccco3)CC2)cc1 (centres undefined) | inactive: -33.5% |
| O=C(CCn1c(=O)c2ccccc2n(Cc2cccc(F)c2)c1=O)NCc1ccc2c(c1)OCO2 | inactive: 2.82% |
| CCOc1ccc(CN2CCN(Cc3ccc4c(c3)c3ccccc3n4CC)CC2)cc1 | inactive: -9.13% |
| CCc1nn(CC(=O)NCc2ccc(C)cc2)c(=O)c2cc3occc3n12 | inactive: -17.2% |
| Cc1ccc(-c2c(C(=O)N3CCN(c4ccc(F)cc4)CC3)oc(=O)c3ccccc23)cc1 | inactive: -5.9% |
| COc1cc(OC)c(OC)cc1CN1CCc2nc(N3CCN(C)CC3)ncc2C1 | inactive: -1.19% |
| Cc1cc(C)cc(N2C(=O)N(Cc3cc(=O)n4ccccc4n3)c3ccccc3S2(=O)=O)c1 | inactive: -29.1% |
| CCOc1ccc(C(=O)/C=C/c2cn(CC(O)CN3CCc4ccccc43)c3ccccc23)cc1 (centres undefined) | inactive: -15.2% |
| COc1ccc(N2CCN(c3nc4ccc(C(=O)c5ccccc5)cc4n4cnnc34)CC2)cc1 | inactive: -27.5% |
| Cc1cccc2c1-c1sc(C(=O)NCCCN3CCN(c4ccccc4F)CC3)cc1CO2 | inactive: 19.7% |
| O=C(CCS(=O)(=O)c1nc(-c2ccc3c(c2)OCO3)cc(C(F)(F)F)n1)Nc1ccc(Br)cc1 | inactive: -36.4% |
| CCOC(=O)c1c(C)n(C)c2ccc(O)cc12 | inactive: -1.96% |

| Structure (SMILES) | activation |
| --- | --- |
| Cc1ccc(NC(=O)c2oc3ccc(S(=O)(=O)N4CCOCC4)cc3c2C)c(C)c1 | inactive: 2.59% |
| COc1ccc(CNC(=O)Cc2coc3ccc(C)cc23)cc1 | inactive: -13.3% |
| COc1ccc(NC(=O)Cc2c(C(=O)O)[nH]c3ccccc23)cc1OC | inactive: 6.44% |
| COC(=O)c1cccnc1-n1c(=O)c2cccnc2n(CC(=O)Nc2cccc(C)c2)c1=O | inactive: 0.301% |
| COc1ccc(C(=O)Nc2ccc3nc4c(c(Nc5ccccc5OC)c3c2)CCCC4)c(OC)c1 | inactive: -9.76% |
| COc1cc(C2c3c(oc4ccc(F)cc4c3=O)C(=O)N2Cc2ccc3c(c2)OCO3)ccc1O (centres undefined) | inactive: -4.7% |
| O=C1CC(c2c(F)cccc2Cl)c2c(ccc3ccccc23)N1 (centres undefined) | inactive: 13.5% |
| CCCCN(CC)C(=O)c1c[nH]c2ccc(S(=O)(=O)N(C)c3ccc(Cl)cc3)cc2c1=O | active: 91.5% |
| CC(C)Oc1ccc(CNC(=O)c2ccc3c(c2)nc2n3CCOC2)cc1 | inactive: -0.491% |
| COc1cc(NC(=O)N2CCSc3ccccc32)cc(OC)c1OC | inactive: -30.3% |
| Nc1cc(-c2ccncc2)c[nH]c1=O | inactive: 37.1% |
| CCN(c1ccccc1C)S(=O)(=O)c1nnc(NC(=O)c2ccccc2C)s1 | inactive: -4.9% |
| CC(CNC(=O)c1ccc(Cn2c(=O)c3cccn3c3cccnc32)cc1)c1ccccc1 (centres undefined) | inactive: -22.1% |
| COc1ccc(-c2c(C)c3cc(OC(=O)N4CCOCC4)ccc3oc2=O)cc1OC | inactive: 1% |
| NC(=O)Cn1c(=O)n(CCCCCC(=O)NCc2ccc3c(c2)OCO3)c(=O)c2sccc21 | inactive: -12.5% |
| COc1cccc(C(=O)CC2(O)C(=O)N(Cc3ccccc3)c3ccccc32)c1 (centres undefined) | inactive: -21.3% |
| CCOc1cc2[nH]c(=O)n(CCCCC(=O)N3CCN(c4ccccc4OC)CC3)c(=O)c2cc1OCC | inactive: -6.57% |
| COc1ccc(NC(=O)c2nnn(CC(=O)Nc3ccc(C)c(C)c3)c2N)cc1OC | active: 91% |
| Cc1ccccc1C(=O)Nc1sc2c(c1C(=O)N1CCC(C)CC1)CCC(C)C2 (centres undefined) | inactive: -24.4% |
| CCc1cccc(NC(=O)Cn2c(=O)n3nc(-c4cccc(F)c4)nc3c3ccccc32)c1 | inactive: -10.1% |
| COc1cccc(Cn2nnc(C(=O)NCc3ccc(Cl)cc3Cl)c2N)c1 | inactive: 1.41% |

| Structure (SMILES) | activation |
| --- | --- |
| CCOC(=O)C1CCCN(c2c(C(=O)c3ccccc3)cnc3ccc(F)cc23)C1 (centres undefined) | inactive: 1.75% |
| Cc1ccccc1CS(=O)(=O)Cc1ccc(C(=O)NCCc2ccc(Cl)cc2)o1 | inactive: 2.98% |
| Cc1cn2c(=O)cc(COC(=O)c3ccc(NC(=O)c4ccccc4C)cc3)nc2s1 | inactive: -1.35% |
| COc1ccc2c(c1)c1c(c(=O)n(-c3ccc(OC)c(OC)c3)c(=O)n1Cc1ccc(F)cc1)n2C | inactive: 27.3% |
| Cc1ccccc1NC(=O)COc1ccc2oc3c(c2c1)CCCC3 | inactive: -4.47% |
| CCOC(=O)N1CCC(NC(=O)c2cnn(-c3ccc(OC)cc3)c2C2CCN(C(=O)OC(C)(C)C)CC2)CC1 | inactive: -6.66% |
| Cc1ccc(Cn2c(=O)n(-c3cccc(C(F)(F)F)c3)c(=O)c3c(C)c(C)sc32)c(C)c1 | inactive: 5.76% |
| Cc1ccc(CSc2ncc(Cl)c(C(=O)Oc3ccccc3F)n2)cc1 | inactive: 5.48% |
| Cc1cn(C)c(CC(=O)Nc2cccc(C#N)c2)c1C(=O)O | inactive: -5.13% |
| Cc1ccc(Cn2c(=O)c3cccnc3n(Cc3ccc(C)cc3)c2=O)cc1 | inactive: -16.3% |
| COc1ccc(-c2cc3nc(C)c(CCC(=O)NCCc4ccc(Cl)cc4)c(C)n3n2)c(OC)c1 | inactive: -10.5% |
| O=C(CN1C(=O)COc2ccc(S(=O)(=O)N3CCCCCC3)cc21)N1CCN(c2ccc(F)cc2)CC1 | inactive: -1.97% |
| Cc1ccc(-c2nn3c(=O)cc(CN4CCN(C(=O)Nc5cccc(C(F)(F)F)c5)CC4)nc3s2)cc1 | inactive: -6.33% |
| Cc1ccccc1OCCn1cc(C(=O)c2ccco2)c2ccccc21 | inactive: -8.44% |
| Cc1ccc(CCNC(=O)c2cnc3c(-c4ccc(F)cc4)c(C)nn3c2C)cc1 | inactive: -9.16% |
| Clc1ccc(-c2noc3ncnc(NC4CCCCC4)c23)cc1 | inactive: 28.5% |
| COc1ccc(OC)c(C2CC(=O)c3c([nH]c(C(=O)OCc4ccc(C)cc4)c3C)C2)c1 (centres undefined) | inactive: -21.2% |
| COc1cc(NC(=O)CN2Cc3ccccc3C2=O)cc(OC)c1OC | inactive: -2.11% |
| Cc1ccc(-c2nc(CCNC(=O)C(=O)Nc3c(C)cccc3C)cs2)cc1 | inactive: -17.2% |
| Cn1c(=O)c2c(c3ccccc31)OC(=O)CC2c1cccc(Cl)c1 (centres undefined) | inactive: -10.4% |
| COc1ccccc1/C=C/c1nc(C#N)c(NCC(C)C)o1 | inactive: 1.62% |

| Structure (SMILES) | activation |
| --- | --- |
| O=C(Cn1ccc2cc(S(=O)(=O)N3CCCCC3)ccc21)NCc1ccccc1Cl | inactive: -17.7% |
| CCOCCn1cnc2sc(C(=O)Nc3ccccc3C(=O)OC)c(C)c2c1=O | inactive: 4.55% |
| COc1ccc(N2C(=O)CSC23C(=O)N(Cc2ccc(C)cc2)c2ccccc23)cc1Cl (centres undefined) | inactive: -34.7% |
| CCOc1ccc(NC(=O)Cn2nc(Cc3ccncc3)c3ccccc3c2=O)cc1 | inactive: -15% |
| CCOc1cccc(CC(=O)N2CCc3c([nH]c4ccccc34)C2c2ccc(SC)cc2)c1OCC (centres undefined) | inactive: 1.34% |
| Cc1c(C(=O)NCCO)[n+](=O)c2ccccc2n1[O-] | inactive: -23% |
| CC(C)Cn1c(=O)c2ccccc2n2c(CCC(=O)Nc3ccc(F)cc3)nnc12 | inactive: 6.65% |
| CCCN(CCC)C(=O)c1nn(C)c2c1CSc1ccc(C)cc1-2 | inactive: 14.9% |
| COc1ccc(-n2ccnc(NCc3ccccc3Cl)c2=O)cc1OC | inactive: 6.01% |
| CCOC(=O)c1cc(-c2ccccc2)n(CCCC(=O)Nc2ccccc2C)c1C | inactive: -26.8% |
| COc1ccc(C(=O)c2oc3ccccc3c2NC(=O)c2cccc(OC)c2)cc1 | inactive: -11.4% |
| COc1ccc(CNC(=O)c2sc3nc4n(c(=O)c3c2C)CCCCC4)cc1 | inactive: -9.93% |
| Clc1cccc(C2=NC(c3cccs3)=Nc3ccc(Br)cc3N2)c1 | inactive: -20.2% |
| CCc1ccc(NC(=O)CN2C(=O)c3ccccc3Sc3ccc(C(=O)N4CCCC4)cc32)cc1 | inactive: -18.1% |
| CCOc1ccccc1CNC(=O)c1cnc2sc(N(CC)CC)nn2c1=O | inactive: -7.83% |
| CC(C)CN(CCNC(=O)c1cc(-c2cccs2)nc2ccccc12)CC(C)C | inactive: -6.31% |
| Cc1ccc2nc(COc3cccc(NC(=O)c4ccccc4Cl)c3)cc(=O)n2c1 | inactive: 9.76% |
| CCN(CC)CCOC(=O)c1ccc(Nc2c3c(nc4ccccc24)CCC3)cc1 | inactive: -0.239% |
| COc1ccc(CNC(=O)C(CC(C)C)N2Cc3ccccc3C2=O)cc1 (centres undefined) | inactive: -9.43% |
| Cc1nc2nc(C)c(NS(=O)(=O)c3ccc(CC(C)C)cc3)c(=O)n2[nH]1 | inactive: -8.99% |
| CCOc1ccc(OCC)c(NC(=O)C2CCCN(S(=O)(=O)c3cc(Br)cc4c3N(C(=O)CC)CC4)C2)c1 (centres undefined) | inactive: -7.59% |
